± gives the standard deviation of the averaged measurements. The list shows a part of the results.
test system: PfAP2-LT AP2 domain (GST-tagged); test: gcPBM binding intensity (ln(normalized median fluorescence intensity)); higher = stronger DNA binding
Summary of the method: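 Binding intensity values are the highest Masliner-normalised natural-log median intensity among replicate spots of either probe orientation. The binding step lasted 1 h in 1× PBS with 1% milk, 0.2 mg/ml BSA, 0.5% salmon testes DNA and 0.03% Triton X-100, using GST-tagged P. falciparum DNA-binding domains expressed in E. coli on an Agilent 4 × 180k array of primer-extended double-stranded 36-bp intergenic genomic probes plus negative controls. Alexa488 anti-GST antibody and a 488 nm scan detected bound protein.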

Row | Sequence | gcPBM binding intensity (ln)
1 | ATATTTTATGTAAAGGTGCAAAACAACATTAAAAAA | 9.04 ± 0.43
2 | ATATATACATTTCTATGTACATATGTATATATGTAT [XGTACX_site1522] | 8.97 ± 0.42
3 | TTAATCTAGAGAAATTGTACATTTTATTAACACAAT [XGTACX_site1190] | 8.54 ± 0.4
4 | ATAAAAGAAAACAATAGTACTTTAGTTTTTCTTTTT [XGTACX_site5686] | 8.46 ± 0.47
5 | ATTTTTTTTTTTTGTTTTTTCTTACAAATTAAATGA [CACACA_negctrl_site1457] | 8.43 ± 0.48
6 | AAACCTTTAGAAAATCGTACAAAACATAACCACCTA [XGTACX_site1098] | 8.91 ± 0.3
7 | AAACAAAAGTAGAAGGTAGAGTATTTTATATTTAAA [GTGCAC_negctrl_site503] | 8.55 ± 0.69
8 | AAATAACTCATGGGTTGTACTTAAAAAAAAAAAGAT [XGTACX_site4168] | 8.81 ± 0.47
9 | TTTTTTTTTTTTCACGTGCACTATACATATAAGTAA | 8.85 ± 0.34
10 | CTCTTGTCATTTTGCACACACACATGGATAGGTTAT [CACACA_site5655] | 9.81 ± 0.33
11 | AATATTGTATATAATAAACACACAATATTAAAAATA [CACACA_site8262] | 9.03 ± 0.54
12 | GTATTTTAATATAAATGTACATAAATGTTATATATA [XGTACX_site3475] | 8.56 ± 0.4
13 | CTTTAAACCCTGAACACACACAAATACAGACAAAAA [CACACA_site247] | 9.3 ± 0.35
14 | TACACAAGAAAATTCACACACACACGGATATTTATA [CACACA_site7765] | 9.73 ± 0.22
15 | ACGTACTGCCCTAAAGTGCATATATAATATAAACGA [GTGCAC_site9911] | 8.8 ± 0.44
16 | GTATCGAAGTAAATACGTACTTAAATATGTTTAAAA [XGTACX_site1353] | 8.65 ± 0.47
17 | ATATGACTTAAATATGTGCGCATTTTTTTTTTTTTT | 8.93 ± 0.38
18 | CATATATAAATCATGTGTACGTATTGAGTATCTACT [XGTACX_site6278] | 8.9 ± 0.39
19 | AGGATATATAATTAAGTGCATTAATTCAAAATAAAA [GTGCAC_site9702] | 8.66 ± 0.49
20 | ATAAGATATGTATATACACACATTTATTTACCTATA [CACACA_site7521] | 9.05 ± 0.33
21 | TTATTATTTTATAACACACACATATATATTATATCT [CACACA_site1434] | 9.11 ± 0.35
22 | TAAACAAAATATATATGTACATATATATATATATAT [XGTACX_site6502] | 9.78 ± 0.32
23 | TTTTATTTGACAAGCACACACTTAAATATATTTATA [CACACA_site7557] | 8.91 ± 0.42

Row | Sequence | gcPBM binding intensity (ln)
24 | AAAACATTTTCAAACTGTACACATAGAACTATGCAT [XGTACX_site4087] | 8.79 ± 0.38
25 | ACATAAGAAGTTATATGTACATATATTTTTTAAATT [XGTACX_site8078] | 8.71 ± 0.51
26 | ATCTAGCCATTTTTTAGTACACATAAATAAAAAAAA [XGTACX_site1257] | 8.41 ± 0.5
27 | CATTAATAACAAAGTTGTACAAGATAATATTATATG [XGTACX_site6832] | 8.98 ± 0.49
28 | ATGTGTGTATTTTATAGTACAGTTACAAGCATTTTT [XGTACX_site6351] | 9.12 ± 0.29
29 | TTTTTCTGTTCTTTTTGTACTTAAATATATTTATTT [XGTACX_site5658] | 8.85 ± 0.54
30 | ACAATGAGGATATATACACACATACATTAAAAAAAT [CACACA_site6955] | 9.24 ± 0.44
31 | AAAAAAGAAAAAAGGACACACATAAATATACACCCG [CACACA_site5590] | 9.49 ± 0.3
32 | CACAAAAATAAACACACACACATATATATATATATA [CACACA_site4704] | 10.21 ± 0.057
33 | AGAATATAATTTTTATGTACATATATTAAATATATT [XGTACX_site8521] | 8.61 ± 0.33
34 | AATTTTCTACAAATGTGTACTAAATAAAATATTACT [XGTACX_site7175] | 8.63 ± 0.39
35 | TATTTATTTATAAACACACAAATATTTTTATTTATA [CACACA_site6889] | 8.49 ± 0.32
36 | AAGAAAAGCAAACAAGTGCATAATAACAAAAAAAAT [GTGCAC_site9725] | 9.05 ± 0.51
37 | TAAGTTCGAATTACTTAAATATTGATTTTTTTAAAA [TGCATGCA_negctrl_site114] | 8.16 ± 0.4
38 | AAATAAGAGAAAATATGTACATACATATATTTATAT [XGTACX_site6210] | 8.87 ± 0.48
39 | TCATAAAATATGTTTTGTACATAAAATTAAACAAGT [XGTACX_site1763] | 8.59 ± 0.49
40 | ATATAATTTGTTATACTAACTTTTTAATTATTGATA [GTGCAC_negctrl_site443] | 8.52 ± 0.45
41 | AAATATAAATAAAGATGTACATTATCTATATGTGAT [XGTACX_site4863] | 8.82 ± 0.47
42 | AATACGTTTATATATTGTACGTTATATATATATATA [XGTACX_site7452] | 9.04 ± 0.17
43 | ATCCGTGTCTGAAATACACACATGATAATGTGAATG [CACACA_site8210] | 8.96 ± 0.32
44 | ATGGAAACAAGCATCACACATATAAATATATATATA [CACACA_site4979] | 9.04 ± 0.35
45 | ACCATGATAAATGTATTAAATGTATCATAACCTATG [CACACA_negctrl_site513] | 8.79 ± 0.38

— the supplement of paper PMC11417369
